Results taken from article PMC7819943, “Rice protein-binding microarrays: a tool to detect cis-acting elements near promoter regions in rice”.
The other results are listed elsewhere or left out.

target: T1, OsWOX13 (Oryza sativa, UniProt Q5QMM3 1-267); assay: protein-binding microarray (RPBM); PBS, 2% BSA, 51.3 ng/ul salmon testes DNA, 50 uM zinc acetate, 200 nM TF, 25 C, 1 h; high values mean tight binding; conditions: protein: recombinant; tags: N-terminal polyhistidine and DsRed monomer fusion (pET32a); label: CyDye5-dUTP incorporated in the synthesized complementary strand; 3' TTTTT single-stranded linker to array surface; dsDNA, one strand shown
T1 sequence: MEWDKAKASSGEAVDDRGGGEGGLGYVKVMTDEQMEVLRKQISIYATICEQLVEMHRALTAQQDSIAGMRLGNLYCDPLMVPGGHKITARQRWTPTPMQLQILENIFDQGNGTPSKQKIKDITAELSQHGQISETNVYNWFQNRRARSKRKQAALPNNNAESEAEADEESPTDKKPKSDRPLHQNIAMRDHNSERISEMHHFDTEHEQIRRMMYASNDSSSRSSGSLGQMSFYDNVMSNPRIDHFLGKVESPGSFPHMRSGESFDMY
Summary of the method: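 An Axon 4000B scanner gave the binding signal as per-feature fluorescence intensity in arbitrary units. This followed washing of a custom Agilent array that had been incubated for 1 h at 25 °C with 200 nM protein in PBS, 2% BSA, salmon testes DNA and 50 µM zinc acetate. The proteins were transcription factors fused at the N-terminus to polyhistidine and DsRed, expressed in E. coli BL21-CodonPlus and purified on Ni–NTA.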

Sequence | binding signal
CACTGCCTTGATTAGTGGGGCAGCAGTACCTTGTTATGCCCGGAGTCACCTAGTGCAG | 11600 fluorescence intensity (a.u.)
GAACTAATTTGCAGGGTAGCAGAAATAAGTTGTTGCTGCACGGAGTCACCTAGTGCAG | 10900 fluorescence intensity (a.u.)
ATACATCAACCTAATTGCTTTATATTGGGATGGAGGGAGTCGGAGTCACCTAGTGCAG | 5120 fluorescence intensity (a.u.)
ATTATCTTTCTAATCAATTAATTAAACGCAAAATCAGTAGCGGAGTCACCTAGTGCAG | 25400 fluorescence intensity (a.u.)
CAAATGACAAATTGCCAAGTTTTACTACTAGTGTTTAGATCGGAGTCACCTAGTGCAG | 12800 fluorescence intensity (a.u.)
CCCTTGACGCTTCATTTCCGTCTTCTCATTTAAACTTTATCGGAGTCACCTAGTGCAG | 4050 fluorescence intensity (a.u.)
AATATATAATTAATCATTCATTAATGTTTGTGCCGCGATTCGGAGTCACCTAGTGCAG | 31500 fluorescence intensity (a.u.)
GCAATTAATTAATTCTCCATCGTTGCAAGTTAGCCAATTTCGGAGTCACCTAGTGCAG | 38200 fluorescence intensity (a.u.)
CCAAACTGAAGCATATGTCAGCCATCAATTGAGTGGCCTCCGGAGTCACCTAGTGCAG | 4230 fluorescence intensity (a.u.)
GGGGATGGATGGATGGATGGATTAATCTCCCCAAATGGAACGGAGTCACCTAGTGCAG | 7060 fluorescence intensity (a.u.)
TATTTCGTGGTGTCATTGTGATTGATCCAAGTGCTCTGACCGGAGTCACCTAGTGCAG | 8510 fluorescence intensity (a.u.)
ATAAAGATGGACTGCTGGAATTGACATTACCTGACATCAGCGGAGTCACCTAGTGCAG | 7760 fluorescence intensity (a.u.)
TAATAGTTATAATTTAAATGTATATCACTATATGCTGTTACGGAGTCACCTAGTGCAG | 4830 fluorescence intensity (a.u.)
CAAGATTGTTTGTGTATGAATTTTCTTCTCTCATAGATTACGGAGTCACCTAGTGCAG | 9410 fluorescence intensity (a.u.)
TGAAATTTATTAATCAATGAACTAAATTACTCCCTCGAGTCGGAGTCACCTAGTGCAG | 24500 fluorescence intensity (a.u.)
ACGTGATTTGGGTTTTGGCCGCCGCCCAGCTGCAAGTCTGCGGAGTCACCTAGTGCAG | 23200 fluorescence intensity (a.u.)
ATTTGCCTAGGCTAATTAGTAATTACAGTGCTATGTTCTCCGGAGTCACCTAGTGCAG | 7160 fluorescence intensity (a.u.)
TCTAGATTTATCTTTAGAATTTAAATCATTTTGGACAAAGCGGAGTCACCTAGTGCAG | 3770 fluorescence intensity (a.u.)
TGGGATGATTGAGCACCAGTGATTTCGTATCCGGTCAAAACGGAGTCACCTAGTGCAG | 25500 fluorescence intensity (a.u.)
ATGAGATAAATTGATTGTTAACCATGTATGTCTCTAAGGTCGGAGTCACCTAGTGCAG | 56400 fluorescence intensity (a.u.)
GACTTCTCAACACATGATTAATTAAGTATTAATTAATTTTCGGAGTCACCTAGTGCAG | 6280 fluorescence intensity (a.u.)

Sequence | binding signal
GCTAATTGGGCCTTCAGGTAGGGGTGGGCGTTCGGTCTGACGGAGTCACCTAGTGCAG | 40000 fluorescence intensity (a.u.)
TATAATTTATAAATAACTAAAATTTGATATTGAAAATAATCGGAGTCACCTAGTGCAG | 4160 fluorescence intensity (a.u.)
ATTGACTGCAACAGCTGAGAACTTGAACCCTCAGATCGATCGGAGTCACCTAGTGCAG | 6640 fluorescence intensity (a.u.)
TGGGTAATTACCGCCGGGATCAGGATCCGACGCCCAGATCCGGAGTCACCTAGTGCAG | 16000 fluorescence intensity (a.u.)
TGTGTCATGATTGCATGGGATTTAAAATAGGCTAGAATAGCGGAGTCACCTAGTGCAG | 12800 fluorescence intensity (a.u.)
TTGGATAAGATGAACTTCAATCAATTTGCGGGCAAACCTTCGGAGTCACCTAGTGCAG | 9080 fluorescence intensity (a.u.)
ATTATTGAATTATTATTGCATTATTATTATTGGATGGTTACGGAGTCACCTAGTGCAG | 14800 fluorescence intensity (a.u.)
TTAATTAGGTTTAATAGATTCATCTCGCAGTTTACAGGCACGGAGTCACCTAGTGCAG | 18500 fluorescence intensity (a.u.)
CTTGACTGAATATGAGAAGCTGTAGCTGCAAAGTTCAGAACGGAGTCACCTAGTGCAG | 14000 fluorescence intensity (a.u.)
TACGCAATTATAATTTATTTTGTTATGAGTCGTTTTATCACGGAGTCACCTAGTGCAG | 11900 fluorescence intensity (a.u.)
TCAAACAGATTAAATACGAGCCCCTTTACGACATGCGAGCCGGAGTCACCTAGTGCAG | 13900 fluorescence intensity (a.u.)
GGAATAACAATTAGATTTGGTGCAATGACAATGGTGAGACCGGAGTCACCTAGTGCAG | 7260 fluorescence intensity (a.u.)
AGTTAAATTTAGCATGTAAGTGCAGAGCCACTGTTTGTGTCGGAGTCACCTAGTGCAG | 6520 fluorescence intensity (a.u.)
AGGGGATGTGATAATGACACGGATTAACTCAGTATAATGCCGGAGTCACCTAGTGCAG | 3350 fluorescence intensity (a.u.)
CCTGATTTCAGTGTGGGAACACAGAATAAACACATTAGTCCGGAGTCACCTAGTGCAG | 6790 fluorescence intensity (a.u.)
TTACCAATTACAATGCAGTTACACTTCAATTATACTATAACGGAGTCACCTAGTGCAG | 11800 fluorescence intensity (a.u.)
ATAAATTTAGCCTCTTTTGTTTAGTATTGCAACTACCAATCGGAGTCACCTAGTGCAG | 3440 fluorescence intensity (a.u.)
ATTCTACTATTGATTGATCATGTGTTTTAGTTATCACATCCGGAGTCACCTAGTGCAG | 40600 fluorescence intensity (a.u.)
TAACAAATGATTTGCTCCTGGTCTTTGCTACTGCAGTGCACGGAGTCACCTAGTGCAG | 16500 fluorescence intensity (a.u.)
ATTAATTGGTCGTGTATTAGCAAACGATATATATATCGGTCGGAGTCACCTAGTGCAG | 50500 fluorescence intensity (a.u.)
CTCTAAACATACATTAAACGTGCACCGACGAATGGACATGCGGAGTCACCTAGTGCAG | 3950 fluorescence intensity (a.u.)
